In publication PMC4336329 (PLoS ONE, 2015):
The campaign covered roughly 310,000 compounds. About 2,200 (0.71%) showed an effect of 50% or more. Effects have a minus sign here. The list shows a part of the results.

Each compound was assayed against human ether-à-go-go-related gene (hERG) potassium channel (human, UniProt Q12809) (assay: primary screen, population patch clamp on CHO cells stably expressing hERG).
Sequence of human ether-à-go-go-related gene (hERG) potassium channel (Q12809 whole entry, looked up): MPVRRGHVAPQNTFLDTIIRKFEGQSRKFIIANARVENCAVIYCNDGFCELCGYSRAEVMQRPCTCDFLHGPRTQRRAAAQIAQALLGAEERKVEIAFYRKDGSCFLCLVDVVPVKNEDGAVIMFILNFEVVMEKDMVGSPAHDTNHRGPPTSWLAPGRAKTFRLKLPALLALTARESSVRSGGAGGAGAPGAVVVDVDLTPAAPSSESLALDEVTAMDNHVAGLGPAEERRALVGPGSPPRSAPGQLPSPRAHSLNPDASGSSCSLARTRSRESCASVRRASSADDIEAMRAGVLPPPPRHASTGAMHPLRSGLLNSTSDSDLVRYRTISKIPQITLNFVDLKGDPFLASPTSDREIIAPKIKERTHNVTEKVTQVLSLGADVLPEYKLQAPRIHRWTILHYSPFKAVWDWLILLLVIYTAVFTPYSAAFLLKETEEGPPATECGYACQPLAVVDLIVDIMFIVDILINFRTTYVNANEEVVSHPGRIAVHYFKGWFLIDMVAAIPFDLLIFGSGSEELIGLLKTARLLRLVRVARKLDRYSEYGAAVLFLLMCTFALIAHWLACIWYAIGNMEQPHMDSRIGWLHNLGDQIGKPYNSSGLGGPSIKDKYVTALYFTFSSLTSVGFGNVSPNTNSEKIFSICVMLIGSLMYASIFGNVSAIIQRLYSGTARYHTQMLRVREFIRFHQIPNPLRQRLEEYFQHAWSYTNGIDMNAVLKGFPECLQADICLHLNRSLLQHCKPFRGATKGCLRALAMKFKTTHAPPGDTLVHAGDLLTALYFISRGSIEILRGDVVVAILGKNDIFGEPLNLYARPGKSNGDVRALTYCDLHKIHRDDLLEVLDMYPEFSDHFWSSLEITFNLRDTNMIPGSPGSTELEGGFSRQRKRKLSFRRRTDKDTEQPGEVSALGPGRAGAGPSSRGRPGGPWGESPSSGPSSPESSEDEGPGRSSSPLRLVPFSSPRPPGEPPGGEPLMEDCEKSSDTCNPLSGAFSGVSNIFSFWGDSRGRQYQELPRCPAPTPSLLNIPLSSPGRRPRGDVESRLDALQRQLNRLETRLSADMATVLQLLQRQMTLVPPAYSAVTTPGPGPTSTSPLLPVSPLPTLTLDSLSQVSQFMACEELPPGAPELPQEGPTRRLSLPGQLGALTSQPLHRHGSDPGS

Row | Structure (SMILES) | hERG current change (%, negative = inhibition) at 1uM [%]
1 | COc1ccc(CCC2(C)NC(=O)N(C(C)C(=O)N3c4ccccc4CC3C)C2=O)cc1 (stereo not shown) | 3.27
2 | COc1ccccc1N1CCN(C(=O)C2CC(=O)N(c3ccccc3)C2)CC1 (stereo not shown) | 6.55
3 | COc1ccc(OC)c(CCNC(=O)CC2(CC3=NS(=O)(=O)c4ccccc4N3)CCCC2)c1 | 13.4
4 | Cc1cccc(NC(=S)N2CCN(S(=O)(=O)c3ccccc3)CC2)c1 | 13.3
5 | O=Cc1c(C(=O)O)n(Cc2ccc(F)cc2Cl)c2ccccc12 | 13.9
6 | COc1cc(C2CC(c3c(C)cc(C)[nH]c3=O)=NN2c2ccccc2F)cc(OC)c1OC (stereo not shown) | 9.5
7 | Cc1cccc(NC(=S)N2CCOCC2)c1C | 1.96
8 | COC(=O)C1=CN(c2cccc(C)c2)C=C(C(=O)OC)C1c1cc(OC)c(O)c([N+](=O)[O-])c1 | 12.8
9 | CC1CC(C)CN(C(=O)C(Cc2ccccc2)NC(=O)c2ccccc2)C1 (stereo not shown) | 4.65
10 | Fc1ccc(-n2[nH]nnc2=S)cc1N1CCCC1 | 18.4
11 | c1ccc2c(c1)CCCC2NC1=NCCC1 (stereo not shown) | -4.9
12 | Cn1cccc1CC(=O)NNC(=S)Nc1ccc(Cl)cc1Cl | 10.4
13 | CC(C)C(NCc1c(Cl)cccc1Cl)C(=O)O (stereo not shown) | 4.7
14 | NS(=O)(=O)c1ccc(CCNC(=O)CCC2COc3ccccc3O2)cc1 (stereo not shown) | 6.61
15 | COc1ccc(CCC(C)NC(=O)Cc2ccc(OC)c(OC)c2)c(OC)c1 (stereo not shown) | 16.5
16 | CN(C)c1ccc(/C=N/c2cc(-c3ccccc3)nn2-c2ccccc2)cc1 | -3.67
17 | Cc1ccnc(N2C(=O)c3cccc4c([N+](=O)[O-])ccc(c34)C2=O)c1 | 8.63
18 | Cc1cccc(NC(=O)CNC(=O)c2cccs2)n1 | 14.9
19 | CCN1CCN(C(=O)COc2ccc3c(c2)C(=O)CC2(CCN(C(C)=O)CC2)O3)CC1 | 18.1
20 | COc1ccccc1NC(=O)C(C)Sc1nnc2ccccn12 (stereo not shown) | 9.38
21 | Cc1n[nH]c(=O)c2c(NC(=O)CSc3ccccc3Cl)oc(C)c12 | -7.79
22 | Cc1ccc2nc(NC(=O)C3CCN(S(=O)(=O)c4cc([N+](=O)[O-])ccc4Cl)CC3)sc2c1 | -2.71

Row | Structure (SMILES) | hERG current change (%, negative = inhibition) at 1uM [%]
23 | Cc1ccc(NC2c3ncccc3C(=O)N2Cc2cccs2)cc1 (stereo not shown) | 0.478
24 | Cc1cc(OCC(=O)OCC(=O)NC2CCCCCC2)ccc1Cl | 11.8
25 | COc1ccccc1N(C(=O)c1snc(C(N)=O)c1N)C(C(=O)NC1CCCC1)c1ccc(N(C)C)cc1 (stereo not shown) | 11.9
26 | O=C(CSc1ccc(Cl)cc1)Nc1cccc(-c2nc3ncccc3o2)c1 | 7.51
27 | CCOC(=O)c1nc(-c2ccc(OC)c(OC)c2)cnc1C#N | 5.05
28 | O=C(CN1C(=O)NC2(CCc3ccccc32)C1=O)Nc1ccc(N2CCOCC2)cc1 (stereo not shown) | 9.49
29 | CCOc1cccc(-c2c(C(=O)N/N=C(\C)c3ccccn3)nnn2-c2nonc2N)c1 | 10.5
30 | COc1cc(NC(=O)c2cnn3c(C(F)F)cc(C4CC4)nc23)c(OC)cc1Cl | 6.95
31 | CC(=O)Nc1ccc(NC(=O)C2CC(=O)N(c3ccc(Cl)cc3)C2)cc1 (stereo not shown) | 2.97
32 | CN(Cc1ccccc1F)c1nc(-c2cccnc2)nc2ccccc12 | 13.1
33 | Cc1ccc(S(=O)(=O)c2nc(S(C)(=O)=O)sc2N2CCC(C)CC2)cc1 | 16.5
34 | COC(=O)c1ccc2c(=O)n(CCCCCC(=O)NCCNC(C)=O)c(=O)[nH]c2c1 | 3.48
35 | Cc1ccc(C(=O)NC2CCN(CC(=O)NCc3cccs3)CC2)cc1 | 2.06
36 | Cc1ccc(C(C(=O)NCc2ccco2)N(C(=O)CNC(=O)c2cccs2)c2ccc(C)cc2C)cc1 (stereo not shown) | 10.3
37 | COC(=O)CCNC(=O)c1ccc2nc(Cc3ccc(OC)c(OC)c3)oc2c1 | 12.8
38 | CCOP(=O)(OCC)C1(C(=O)[O-])CCCC1.[NH4+] | 4.97
39 | CCCCn1c(SCC(=O)Nc2nnc(CC)s2)nc2ccccc2c1=O | 9.12
40 | CCN(CC)CCN(CC)Cc1ccccc1Br | 1.33
41 | FC(F)(F)c1cnc(-c2cnc(-c3ccncc3)nc2)c(Cl)c1 | 7.49
42 | Br.O=C(Cn1c(NCCO)nc2ccccc21)c1ccco1 | 8.49
43 | O=C1N(c2ccccc2C(F)(F)F)O[C@@]1(c1ccccc1)C1CCCC1 | 9.53
44 | CN1c2ccccc2-c2nc3ccccc3n2C1c1ccco1 (stereo not shown) | 4.94

Row | Structure (SMILES) | hERG current change (%, negative = inhibition) at 1uM [%]
45 | Cc1[nH]nc(SCC(=O)NC(C)c2ccccc2)c1[N+](=O)[O-] (stereo not shown) | 9.39
46 | O=C1CC(N2CCSCC2)C(=O)N1c1ccc(Br)cc1 (stereo not shown) | 4.38
47 | CC(=O)Nc1cccc(N/C=C(\C=O)c2nc3ccccc3o2)c1 | -4.54
48 | NC(=O)c1cc(S(=O)(=O)NCc2ccc(F)cc2)cs1 | 10.3
49 | COc1ccc(-c2csc(=Nc3c(C)n(C)n(-c4ccccc4)c3=O)n2C(C)(C)C)cc1 | 0.379
50 | CCC(=C(c1ccc(OC)cc1)c1ccc(OC)cc1)c1cn(CC(O)CN2CCN(C)CC2)c2ccccc12 (stereo not shown) | 2.64
51 | COc1cc(C(=O)N/N=C/c2ccc(OC(=O)c3ccccc3Cl)cc2)ccc1O | 8.38
52 | COc1ccccc1Nc1nc(-c2sc(NC(=O)CC(C)C)nc2C)cs1 | 8.73
53 | O=C(CCN1C(=O)C2C3C=CC(C3)C2C1=O)N1CC(=O)N(CCc2ccccc2)C(=O)C1 (stereo not shown) | 1.49
54 | O=C(CSc1nnnn1C1CC1)N1CCN(c2ccc(O)cc2)CC1 | 8.62
55 | O=C(NC1CC1)C1=C[C@@H](C2CCCCC2)C[C@@H](OCc2ccc(CO)cc2)O1 | 10.8
56 | O=C(NCc1cn2ccccc2n1)C1CCC(=O)N(Cc2ccccc2F)C1 (stereo not shown) | 8.19
57 | Cc1ccc(C(=O)c2cc(C)sc2NC(=O)CN2CCN(C(=O)c3ccco3)CC2)cc1 | -3.97
58 | CCN1/C(=C2\C(=O)N(C)C(=S)N2C)C=Cc2cc(C)ccc21 | 2.44
59 | CCCCNCc1ccc(OCc2ccc(Cl)nc2)c(OC)c1.Cl | 1.51
60 | COc1ccc(C2(C(N)=O)CCCCC2)cc1OC | 13.5
61 | Cc1ccc(NC(=O)CSCC(=O)Nc2nnc(C)s2)cc1 | 10.5
62 | Cc1ccccc1NC(=O)c1cccc(NC(=O)c2ccco2)c1 | 10.6
63 | CC(=O)N1CCN(C(=O)CCc2nc3sc4c(c3c(=O)[nH]2)CCCC4)CC1 | 8.39
64 | COc1ccc(-c2sc(C(=O)c3ccc(Cl)cc3Cl)cc2CC(=O)O)cc1 | 14.2
65 | Cc1ccc2c(c1)C1CN(C)CCC1N2S(=O)(=O)c1ccccc1F (stereo not shown) | 6.35
66 | N#CCC(=O)c1sccc1-n1cccc1 | 16.4

Row | Structure (SMILES) | hERG current change (%, negative = inhibition) at 1uM [%]
67 | COCCn1c(C)cc(C(=O)COC(=O)c2ccc(Br)o2)c1C | -13.5
68 | CC(=O)NN1C(=O)c2ccccc2NC1c1cccnc1 (stereo not shown) | 14.8
69 | COc1ccc(N2CCC(CNC(=S)Nc3c(C)cccc3C)C2)cc1 (stereo not shown) | 9.6
70 | CC(C)(C)c1ccc(C(=O)NNC(=O)CCc2ccccc2)cc1 | 10.1
71 | COc1ccc(CNC(=S)N2CCN(Cc3ccccc3)CC2)cc1 | 3.02
72 | COc1ccc2nc(C)cc(Sc3nc4ccccc4s3)c2c1 | 6.95
73 | O=C1Nc2ncccc2OC1CCO (stereo not shown) | 21.3
74 | O=C(N/N=C/c1coc2ccccc2c1=O)c1cc2ccccc2o1 | 3.5
75 | C/C(=N\NC(=O)CCc1ccccc1)c1ccc(Br)cc1 | 9.74
76 | CCNc1cc(N2CCCC2)ccc1[N+](=O)[O-] | 10.9
77 | CC(C)c1nnc(SCC(=O)Nc2ccc3c(c2)OCCO3)n1C | 2.19
78 | Cc1[nH]n(-c2ccccc2)c(=O)c1C=NC1CCCCC1 | -0.515
79 | O=C(CN1CCN(S(=O)(=O)N2CCCCC2)CC1)Nc1ccc(Cl)c(Cl)c1 | 3.09
80 | Cc1nc(SCC(=O)NC(C)(C)C)c2c(-c3cccs3)csc2n1 | -2.23
81 | Fc1ccccc1Nc1n[nH]c(=S)s1 | 17.1
82 | CCOCC(=O)Nc1nc2c(s1)C(=O)CC(C)(C)C2 | 7.91
83 | COc1ccccc1NC(=O)Cc1csc(NC(=O)c2ccccc2)n1 | 7.04
84 | Cc1ccc(NC(=O)c2ccccc2)cc1 | 10.4
85 | CCOc1ccc(S(=O)(=O)N2CCc3cc(OC)c(OC)cc3C2)cc1 | -5.69
86 | COC(=O)CN1C(=O)N/C(=C/c2ccccc2OC)C1=O | -0.284
87 | CCOC(=O)c1c(CSc2ccccc2)n(C)c2cc(Br)c(OC)c(O)c12 | 10.8
88 | Cc1cccc2sc(N(CCCN(C)C)C(=O)c3cc4ccccc4oc3=O)nc12.Cl | -8.2
